According to patent US4652575A, “2-(ethylene-thio methyl furanyl)amino thiazole derivatives having acid secretion inhibiting activity” (Medosan Industrie Biochimiche Riunite S.p.A., priority 1984, dated 1987):
The name of at least one read-out is uncertain.

System: gastric secretion
Test: Activity on gastric secretion "in vivo" (volume and total acidity of gastric juice after pylorus tieing, Shay)
Design: species or system male Wistar rats
Description: The preparations were a solution of the substances in 2.5% citric acid for the "in vitro" test and 5% citric acid for the "in vivo" test respectively. Citric acid was diluted in normal physiologic saline at neutral pH.
The ability of the compounds according to the present invention to inhibit the gastric secretion was studied "in vivo" both by evaluating the volume reduction of gastric juice, and by measuring the total acidity of same after administration of the substances under test according to the Takeda method (see the aforementioned literature).
To this end, tests have been made on male Wistar rats of an average weight of 200 g. The animals, 10 for each substance, were placed into individual cages provided with ground grating in order to avoid coprophagy, without food but with free access to water for 24 hours before test. […] Four hours later the animals were sacrificed and the gastric juice was collected, of which the volume expressed in ml and the total acidity expressed in mEq was measured. The gastric juice ([…] ) was titrated with 0.1N NaOH to pH 7 to determine the acid concentration. The total acidity was then calculated as the product of the total volume of gastric juice by the acid concentration.

[1] = 0,1 mg/kg oral, 1 hour before pilorus tieing
[2] = 1,0 mg/kg oral, 1 hour before pilorus tieing
[3] = 5,0 mg/kg oral, 1 hour before pilorus tieing
[4] = 10,0 mg/kg oral, 1 hour before pilorus tieing
[5] = 20,0 mg/kg oral, 1 hour before pilorus tieing
[6] = dose 0,1 (head: ml/kg) oral, 3 hours before pilorus tieing
[7] = dose 1,0 (head: ml/kg) oral, 3 hours before pilorus tieing
[8] = dose 10,0 (head: ml/kg) oral, 3 hours before pilorus tieing
[9] = dose 20,0 (head: ml/kg) oral, 3 hours before pilorus tieing

| Structure (SMILES) | Total acidity gastric juice secretion [1] | Total acidity gastric juice secretion, Variation % [1] | Volume gastric juice secretion [1] | Volume gastric juice secretion, Variation % [1] | Total acidity gastric juice secretion [2] | Total acidity gastric juice secretion, Variation % [2] | Volume gastric juice secretion [2] | Volume gastric juice secretion, Variation % [2] | Total acidity gastric juice secretion [3] | Total acidity gastric juice secretion, Variation % [3] | Volume gastric juice secretion [3] | Volume gastric juice secretion, Variation % [3] | Total acidity gastric juice secretion [4] | Total acidity gastric juice secretion, Variation % [4] | Volume gastric juice secretion [4] | Volume gastric juice secretion, Variation % [4] | Total acidity gastric juice secretion [5] | Total acidity gastric juice secretion, Variation % [5] | Volume gastric juice secretion [5] | Volume gastric juice secretion, Variation % [5] | also measured |
| --- | --- | --- | --- | --- | --- | --- | --- | --- | --- | --- | --- | --- | --- | --- | --- | --- | --- | --- | --- | --- | --- |
| CN(C)Cc1ccc(CSCCNc2nc(C=Cc3ccccc3)cs2)o1 [Example No. 4, 2-(2-(((5-(dimethylamino)methyl-2-furanyl)methyl)thio)ethyl)amino-4-styryl-thiazole] | 0,16 mEq/4 hours | -11% | 5,0 ml/4 hours | -9% | 0,11 mEq/4 hours | -39% | 4,1 ml/4 hours | -25% | 0,09 mEq/4 hours | -50% | 3,7 ml/4 hours | -33% | 0,06 mEq/4 hours | -67% | 3,5 ml/4 hours | -36% | 0,05 mEq/4 hours | -72% | 3,3 ml/4 hours | -40% | Total acidity gastric juice secretion [6]: 0,16 mEq/4 hours; Total acidity gastric juice secretion, Variation % [6]: -11%; Volume gastric juice secretion [6]: 5,0 ml/4 hours; Volume gastric juice secretion, Variation % [6]: -7%; Total acidity gastric juice secretion [7]: 0,14 mEq/4 hours; Total acidity gastric juice secretion, Variation % [7]: -22%; Volume gastric juice secretion [7]: 4,7 ml/4 hours; Volume gastric juice secretion, Variation % [7]: -13%; Total acidity gastric juice secretion [8]: 0,11 mEq/4 hours; Total acidity gastric juice secretion, Variation % [8]: -39%; Volume gastric juice secretion [8]: 4,0 ml/4 hours; Volume gastric juice secretion, Variation % [8]: -26%; Total acidity gastric juice secretion [9]: 0,09 mEq/4 hours; Total acidity gastric juice secretion, Variation % [9]: -50%; Volume gastric juice secretion [9]: 3,8 ml/4 hours; Volume gastric juice secretion, Variation % [9]: -30% |
| CN(C)Cc1ccc(CSCCNc2nc(-c3ccc(-c4ccccc4)cc3)cs2)o1 [Example No. 5, 2-(2-(((5-(dimethylamino)methyl-2-furanyl)methyl)thio)ethyl)amino-4-(4-biphenyl)-thiazole] | 0,14 mEq/4 hours | -22% | 5,1 ml/4 hours | -7% | 0,10 mEq/4 hours | -44% | 4,1 ml/4 hours | -25% | 0,07 mEq/4 hours | -61% | 3,7 ml/4 hours | -33% | 0,05 mEq/4 hours | -72% | 3,5 ml/4 hours | -36% | 0,03 mEq/4 hours | -83% | 3,0 ml/4 hours | -45% | Total acidity gastric juice secretion [6]: 0,11 mEq/4 hours; Total acidity gastric juice secretion, Variation % [6]: -39%; Volume gastric juice secretion [6]: 4,7 ml/4 hours; Volume gastric juice secretion, Variation % [6]: -13%; Total acidity gastric juice secretion [7]: 0,09 mEq/4 hours; Total acidity gastric juice secretion, Variation % [7]: -50%; Volume gastric juice secretion [7]: 4,0 ml/4 hours; Volume gastric juice secretion, Variation % [7]: -26%; Total acidity gastric juice secretion [8]: 0,06 mEq/4 hours; Total acidity gastric juice secretion, Variation % [8]: -67%; Volume gastric juice secretion [8]: 3,6 ml/4 hours; Volume gastric juice secretion, Variation % [8]: -33%; Total acidity gastric juice secretion [9]: 0,05 mEq/4 hours; Total acidity gastric juice secretion, Variation % [9]: -72%; Volume gastric juice secretion [9]: 3,2 ml/4 hours; Volume gastric juice secretion, Variation % [9]: -41% |
| CN(C)Cc1ccc(CSCCNc2nc(-c3ccc4ccccc4c3)cs2)o1 [Example No. 6, 2-(2-(((5-(dimethylamino)methyl-2-furanyl)methyl)thio)ethyl)-amino-4-(2-naphthyl)-thiazole] | 0,14 mEq/4 hours | -22% | 4,9 ml/4 hours | -11% | 0,11 mEq/4 hours | -39% | 4,1 ml/4 hours | -25% | 0,08 mEq/4 hours | -55% | 3,7 ml/4 hours | -33% | 0,06 mEq/4 hours | -67% | 3,4 ml/4 hours | -38% | 0,04 mEq/4 hours | -78% | 3,3 ml/4 hours | -40% | Total acidity gastric juice secretion [6]: 0,15 mEq/4 hours; Total acidity gastric juice secretion, Variation % [6]: -17%; Volume gastric juice secretion [6]: 5,0 ml/4 hours; Volume gastric juice secretion, Variation % [6]: -7%; Total acidity gastric juice secretion [7]: 0,10 mEq/4 hours; Total acidity gastric juice secretion, Variation % [7]: -44%; Volume gastric juice secretion [7]: 4,8 ml/4 hours; Volume gastric juice secretion, Variation % [7]: -11%; Total acidity gastric juice secretion [8]: 0,07 mEq/4 hours; Total acidity gastric juice secretion, Variation % [8]: -61%; Volume gastric juice secretion [8]: 4,2 ml/4 hours; Volume gastric juice secretion, Variation % [8]: -22%; Total acidity gastric juice secretion [9]: 0,06 mEq/4 hours; Total acidity gastric juice secretion, Variation % [9]: -67%; Volume gastric juice secretion [9]: 2,4 ml/4 hours; Volume gastric juice secretion, Variation % [9]: -55% |
